The other results are listed elsewhere or left out.
Key:
Assay in all cases: glycan array binding signal (z-score within array); higher = stronger binding
Conditions in all cases: glycan notation: IUPAC condensed, linker removed
Fuc(a1-2)Gal = target: Fuc(a1-2)Gal
Method in brief: (§1)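 Arrays were curated from the Consortium for Functional Glycomics database, 3228 in total, and kept only where the protein sequence was available. Binding is expressed as a within-array Z-score. This score was averaged across arrays of the same protein sequence at different concentrations or buffers and across linkers, and negative values can be read as non-binding.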

Fuc(a1-2)Gal(b1-3)GalNAc = target: Fuc(a1-2)Gal(b1-3)GalNAc
Method in brief: as §1

[1] = target: Fuc(a1-2)Gal(b1-3)GalNAc(b1-3)Gal
Method in brief: as §1

[2] = target: Fuc(a1-2)Gal(b1-3)GalNAc(b1-3)Gal(a1-4)Gal(b1-4)Glc
Method in brief: as §1

[3] = target: Fuc(a1-2)Gal(b1-3)GalNAc(b1-4)[Neu5Ac(a2-3)]Gal(b1-4)Glc
Method in brief: as §1

Fuc(a1-2)Gal(b1-3)GlcNAc = target: Fuc(a1-2)Gal(b1-3)GlcNAc
Method in brief: as §1

[4] = target: Fuc(a1-2)Gal(b1-3)GlcNAc(b1-2)Man(a1-3)[Fuc(a1-2)Gal(b1-3)GlcNAc(b1-2)Man(a1-6)]Man(b1-4)GlcNAc(b1-4)GlcNAc
Method in brief: as §1

[5] = target: Fuc(a1-2)Gal(b1-3)GlcNAc(b1-3)Gal(b1-4)Glc
Method in brief: as §1

[6] = target: Fuc(a1-2)Gal(b1-3)GlcNAc(b1-3)[Gal(b1-4)[Fuc(a1-3)]GlcNAc(b1-6)]Gal(b1-4)Glc
Method in brief: as §1

[7] = target: Fuc(a1-2)Gal(b1-3)[Fuc(a1-4)]GlcNAc
Method in brief: as §1

[8] = target: Fuc(a1-2)Gal(b1-3)[Fuc(a1-4)]GlcNAc(b1-2)Man(a1-3)[Fuc(a1-2)Gal(b1-3)[Fuc(a1-4)]GlcNAc(b1-2)Man(a1-6)]Man(b1-4)GlcNAc(b1-4)GlcNAc
Method in brief: as §1

Fuc(a1-2)Gal(b1-4)Glc = target: Fuc(a1-2)Gal(b1-4)Glc
Method in brief: as §1

Fuc(a1-2)Gal(b1-4)Glc6S = target: Fuc(a1-2)Gal(b1-4)Glc6S
Method in brief: as §1

Fuc(a1-2)Gal(b1-4)GlcNAc = target: Fuc(a1-2)Gal(b1-4)GlcNAc
Method in brief: as §1

[9] = target: Fuc(a1-2)Gal(b1-4)GlcNAc(b1-2)Man(a1-3)[Fuc(a1-2)Gal(b1-4)GlcNAc(b1-2)Man(a1-6)]Man(b1-4)GlcNAc(b1-4)GlcNAc
Method in brief: as §1

[10] = target: Fuc(a1-2)Gal(b1-4)GlcNAc(b1-3)Gal(b1-4)GlcNAc
Method in brief: as §1

[11] = target: Fuc(a1-2)Gal(b1-4)GlcNAc(b1-3)Gal(b1-4)GlcNAc(b1-3)Gal(b1-4)GlcNAc
Method in brief: as §1

[12] = target: Fuc(a1-2)Gal(b1-4)GlcNAc6S
Method in brief: as §1

[13] = target: Fuc(a1-2)Gal(b1-4)[Fuc(a1-3)]GlcNAc
Method in brief: as §1

[14] = target: Fuc(a1-2)Gal(b1-4)[Fuc(a1-3)]GlcNAc(b1-2)Man(a1-3)[Fuc(a1-2)Gal(b1-4)[Fuc(a1-3)]GlcNAc(b1-2)Man(a1-6)]Man(b1-4)GlcNAc(b1-4)GlcNAc
Method in brief: as §1

[15] = target: Fuc(a1-2)Gal(b1-4)[Fuc(a1-3)]GlcNAc(b1-3)Gal(b1-4)[Fuc(a1-3)]GlcNAc
Method in brief: as §1

[16] = target: Fuc(a1-2)Gal(b1-4)[Fuc(a1-3)]GlcNAc(b1-3)Gal(b1-4)[Fuc(a1-3)]GlcNAc(b1-3)Gal(b1-4)[Fuc(a1-3)]GlcNAc
Method in brief: as §1

Fuc(a1-2)Gal6S(b1-4)Glc = target: Fuc(a1-2)Gal6S(b1-4)Glc
Method in brief: as §1

[17] = target: Fuc(a1-2)Gal6S(b1-4)Glc6S
Method in brief: as §1

[18] = target: Fuc(a1-2)Gal6S(b1-4)GlcNAc
Method in brief: as §1

Fuc(a1-2)[Gal(a1-3)]Gal = target: Fuc(a1-2)[Gal(a1-3)]Gal
Method in brief: as §1

[19] = target: Fuc(a1-2)[Gal(a1-3)]Gal(b1-3)GlcNAc
Method in brief: as §1

[20] = target: Fuc(a1-2)[Gal(a1-3)]Gal(b1-3)GlcNAc(b1-2)Man(a1-3)[Fuc(a1-2)[Gal(a1-3)]Gal(b1-3)GlcNAc(b1-2)Man(a1-6)]Man(b1-4)GlcNAc(b1-4)GlcNAc
Method in brief: as §1

[21] = target: Fuc(a1-2)[Gal(a1-3)]Gal(b1-4)Glc
Method in brief: as §1

[22] = target: Fuc(a1-2)[Gal(a1-3)]Gal(b1-4)GlcNAc
Method in brief: as §1

[23] = target: Fuc(a1-2)[Gal(a1-3)]Gal(b1-4)GlcNAc(b1-2)Man(a1-3)[Fuc(a1-2)[Gal(a1-3)]Gal(b1-4)GlcNAc(b1-2)Man(a1-6)]Man(b1-4)GlcNAc(b1-4)GlcNAc
Method in brief: as §1

[24] = target: Fuc(a1-2)[Gal(a1-3)]Gal(b1-4)[Fuc(a1-3)]GlcNAc
Method in brief: as §1

[25] = target: Fuc(a1-2)[Gal(a1-4)]Gal(b1-4)GlcNAc
Method in brief: as §1

[26] = target: Fuc(a1-2)[GalNAc(a1-3)]Gal
Method in brief: as §1

[27] = target: Fuc(a1-2)[GalNAc(a1-3)]Gal(b1-3)GlcNAc
Method in brief: as §1

[28] = target: Fuc(a1-2)[GalNAc(a1-3)]Gal(b1-3)GlcNAc(b1-2)Man(a1-3)[Fuc(a1-2)[GalNAc(a1-3)]Gal(b1-3)GlcNAc(b1-2)Man(a1-6)]Man(b1-4)GlcNAc(b1-4)GlcNAc
Method in brief: as §1

[29] = target: Fuc(a1-2)[GalNAc(a1-3)]Gal(b1-4)Glc
Method in brief: as §1

[30] = target: Fuc(a1-2)[GalNAc(a1-3)]Gal(b1-4)GlcNAc
Method in brief: as §1

[31] = target: Fuc(a1-2)[GalNAc(a1-3)]Gal(b1-4)GlcNAc(b1-2)Man(a1-3)[GalNAc(a1-3)[Fuc(a1-2)]Gal(b1-4)GlcNAc(b1-2)Man(a1-6)]Man(b1-4)GlcNAc(b1-4)GlcNAc
Method in brief: as §1

[32] = target: Fuc(a1-2)[GalNAc(a1-3)]Gal(b1-4)GlcNAc(b1-3)Gal(b1-4)GlcNAc
Method in brief: as §1

[33] = target: Fuc(a1-2)[GalNAc(a1-3)]Gal(b1-4)GlcNAc(b1-3)Gal(b1-4)GlcNAc(b1-3)Gal(b1-4)GlcNAc
Method in brief: as §1

[34] = target: Fuc(a1-2)[GalNAc(a1-3)]Gal(b1-4)[Fuc(a1-3)]GlcNAc
Method in brief: as §1

[35] = target: Fuc(a1-2)[GalNAc(a1-4)]Gal(b1-4)GlcNAc
Method in brief: as §1

[36] = target: Fuc(a1-2)[GalNAc(b1-3)]Gal
Method in brief: as §1

Fuc(a1-3)GlcNAc = target: Fuc(a1-3)GlcNAc
Method in brief: as §1

[37] = target: Fuc(a1-3)[Gal(b1-4)]Glc6S
Method in brief: as §1

[38] = target: Fuc(a1-3)[Gal(b1-4)]GlcNAc
Method in brief: as §1

[39] = target: Fuc(a1-3)[Gal(b1-4)]GlcNAc(b1-2)Man(a1-3)[Fuc(a1-3)[Gal(b1-4)]GlcNAc(b1-2)Man(a1-6)]Man(b1-4)GlcNAc(b1-4)GlcNAc
Method in brief: as §1

[40] = target: Fuc(a1-3)[Gal(b1-4)]GlcNAc(b1-2)Man(a1-6)[Gal(b1-4)GlcNAc(b1-2)Man(a1-3)]Man(b1-4)GlcNAc(b1-4)GlcNAc
Method in brief: as §1

[41] = target: Fuc(a1-3)[Gal(b1-4)]GlcNAc(b1-3)Gal(b1-3)[Fuc(a1-4)]GlcNAc
Method in brief: as §1

[42] = target: Fuc(a1-3)[Gal(b1-4)]GlcNAc(b1-4)Gal(b1-4)[Fuc(a1-3)]GlcNAc
Method in brief: as §1

[43] = target: Fuc(a1-3)[Gal(b1-4)]GlcNAc(b1-4)Gal(b1-4)[Fuc(a1-3)]GlcNAc(b1-4)Gal(b1-4)[Fuc(a1-3)]GlcNAc
Method in brief: as §1

[44] = target: Fuc(a1-3)[Gal(b1-4)]GlcNAc6S
Method in brief: as §1

[45] = target: Fuc(a1-3)[Gal3S(b1-4)]Glc6S
Method in brief: as §1

[46] = target: Fuc(a1-3)[Gal3S(b1-4)]GlcNAc
Method in brief: as §1

[47] = target: Fuc(a1-3)[Gal3S(b1-4)]GlcNAc6S
Method in brief: as §1

[48] = target: Fuc(a1-3)[GalNAc(b1-4)]GlcNAc
Method in brief: as §1

[49] = target: Fuc(a1-3)[Neu5Ac(a2-3)]Gal(b1-4)GlcNAc(b1-3)GalNAc
Method in brief: as §1

Fuc(a1-4)GlcNAc = target: Fuc(a1-4)GlcNAc
Method in brief: as §1

Fuc(b1-3)GlcNAc = target: Fuc(b1-3)GlcNAc
Method in brief: as §1

B1: Ficolin B (Rattus norvegicus), P57756 (protein)
chain: MVLGSAALFVLSLCVTELTLHAADTCPEVKVLDLEGSNKLTILQGCPGLPGALGPKGEAGAKGDRGESGLPGHPGKAGPTGPKGDRGEKGVRGEKGDTGPSQSCATGPRTCKELLTRGYFLTGWYTIYLPDCRPLTVLCDMDTDGGGWTVFQRRIDGTVDFFRDWTSYKQGFGSQLGEFWLGNDNIHALTTQGTNELRVDLADFDGNHDFAKYSSFQIQGEAEKYKLILGNFLGGGAGDSLTSQNNMLFSTKDQDNDQGSSNCAVRYHGAWWYSDCHTSNLNGLYLRGLHKSYANGVNWKSWKGYNYSYKVSEMKVRLI
- glycan array binding signal (z-score) (Fuc(a1-2)Gal): -0.229
- glycan array binding signal (z-score) (Fuc(a1-2)Gal(b1-3)GalNAc): -0.176
- glycan array binding signal (z-score) [1]: -0.113
- glycan array binding signal (z-score) [2]: -0.242
- glycan array binding signal (z-score) [3]: -0.165
- glycan array binding signal (z-score) (Fuc(a1-2)Gal(b1-3)GlcNAc): -0.197
- glycan array binding signal (z-score) [4]: 0.365
- glycan array binding signal (z-score) [5]: -0.194
- glycan array binding signal (z-score) [6]: -0.217
- glycan array binding signal (z-score) [7]: -0.182
- glycan array binding signal (z-score) [8]: -0.027
- glycan array binding signal (z-score) (Fuc(a1-2)Gal(b1-4)Glc): -0.194
- glycan array binding signal (z-score) (Fuc(a1-2)Gal(b1-4)Glc6S): -0.184
- glycan array binding signal (z-score) (Fuc(a1-2)Gal(b1-4)GlcNAc): -0.192
- glycan array binding signal (z-score) [9]: 0.039
- glycan array binding signal (z-score) [10]: 0.068
- glycan array binding signal (z-score) [11]: -0.183
- glycan array binding signal (z-score) [12]: -0.218
- glycan array binding signal (z-score) [13]: -0.09
- glycan array binding signal (z-score) [14]: -0.055
- glycan array binding signal (z-score) [15]: -0.205
- glycan array binding signal (z-score) [16]: -0.164
- glycan array binding signal (z-score) (Fuc(a1-2)Gal6S(b1-4)Glc): -0.136
- glycan array binding signal (z-score) [17]: -0.166
- glycan array binding signal (z-score) [18]: -0.13
- glycan array binding signal (z-score) (Fuc(a1-2)[Gal(a1-3)]Gal): -0.089
- glycan array binding signal (z-score) [19]: -0.2
- glycan array binding signal (z-score) [20]: -0.137
- glycan array binding signal (z-score) [21]: -0.191
- glycan array binding signal (z-score) [22]: -0.124
- glycan array binding signal (z-score) [23]: -0.067
- glycan array binding signal (z-score) [24]: 0.067
- glycan array binding signal (z-score) [25]: 0.381
- glycan array binding signal (z-score) [26]: -0.146
- glycan array binding signal (z-score) [27]: -0.039
- glycan array binding signal (z-score) [28]: -0.051
- glycan array binding signal (z-score) [29]: -0.208
- glycan array binding signal (z-score) [30]: -0.213
- glycan array binding signal (z-score) [31]: 0.306
- glycan array binding signal (z-score) [32]: -0.19
- glycan array binding signal (z-score) [33]: -0.124
- glycan array binding signal (z-score) [34]: -0.138
- glycan array binding signal (z-score) [35]: -0.185
- glycan array binding signal (z-score) [36]: -0.203
- glycan array binding signal (z-score) (Fuc(a1-3)GlcNAc): -0.124
- glycan array binding signal (z-score) [37]: -0.199
- glycan array binding signal (z-score) [38]: -0.22
- glycan array binding signal (z-score) [39]: -0.214
- glycan array binding signal (z-score) [40]: -0.166
- glycan array binding signal (z-score) [41]: -0.073
- glycan array binding signal (z-score) [42]: -0.044
- glycan array binding signal (z-score) [43]: -0.137
- glycan array binding signal (z-score) [44]: -0.142
- glycan array binding signal (z-score) [45]: -0.09
- glycan array binding signal (z-score) [46]: -0.2
- glycan array binding signal (z-score) [47]: -0.167
- glycan array binding signal (z-score) [48]: -0.214
- glycan array binding signal (z-score) [49]: 0.186
- glycan array binding signal (z-score) (Fuc(a1-4)GlcNAc): -0.089
- glycan array binding signal (z-score) (Fuc(b1-3)GlcNAc): -0.164

— the supplement of paper PMC8728848
